In the supplement of paper PMC3334620:
The full ranking holds about 33,000 sequences; the median of “E-score (-0.5 to 0.5)” is about -0.01, and the highest 2% start at about 0.26. This is one part of the list.

These sequences were tested against Ste12 (UniProt P13574) (assay: PBM E-score (8-mer binding enrichment) (E-score (-0.5 to 0.5)); higher = stronger / more preferred TF binding; most listed sequences are background and not binding sites). Details: protein concentration: 200 nM; construct: GST-DNA-binding domain.
Method in brief: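 PURExpress in vitro transcription/translation supplied GST-tagged yeast transcription factors, either full-length or DNA-binding domain. Applied at about 100-200 nM to universal all-10-mer Agilent arrays double-stranded by primer extension, the bound protein was detected with fluorescent anti-GST. E-scores, modified Wilcoxon-Mann-Whitney statistics, were given by the Universal PBM Analysis Suite to ungapped eight-base words pooled with their reverse complements after masliner normalisation.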

Sequence | PBM E-score
GAATACGC | 0.102
ACCGTCAA | 0.146
CCACCTCC | -0.228
ACTTCCGA | 0.00332
AACTTGGA | 0.156
AAGCCGAC | -0.16
AGGCCCAC | -0.159
TGACACCA | -0.0989
ATTCCACG | -0.0633
GCGAAGAA | 0.0403
GTGTCCTA | -0.176
CGGAAGCC | -0.176
GCAACATA | 0.0117
AGTGGCGA | 0.134
GTGTCTGA | 0.173
AGTAGTGC | -0.153
AGCGCGTG | 0.0835
GCGGAGAC | -0.139
GCCTAAAC | -0.125
ATGGCCGA | -0.0852
GGCGGCAA | 0.0101
TCGGGTAA | 0.044

Sequence | PBM E-score
CGGCCTGC | -0.27
GCGATAAC | -0.0463
CATGTGAG | -0.146
AAAAACCA | 0.234
GGAAATCC | -0.00536
GACGACGA | -0.133
CGCCTGCA | -0.231
ACGGACTG | -0.136
CGAACTAA | 0.167
CGGACCAC | -0.0791
CATTTGTA | 0.0891
AAAGTTAC | 0.0946
AGGGGCAT | -0.00976
GGTATTAA | 0.148
AGACTGAG | -0.176
AGCCCGCT | -0.31
CGACCATA | 0.0304
ATACGTCG | 0.104
TACAAATA | 0.218
AAAGACAT | -0.137
CAGGAAAA | 0.0915
CGCGAGAA | -0.0403

Sequence | PBM E-score
CACTGTCA | 0.0862
CTCGCCTA | 0.0527
AACTAGGG | -0.095
ACAAAAAA | 0.311
CCCGCAAA | 0.173
AAACAAAA | 0.225
TACCTAGA | -0.129
CAGTTAAA | -0.00288
AGCCCTCG | -0.274
TTCTTAAA | 0.0707
AACAGATG | -0.0969
GCGCGACC | 0.11
GTCCATGA | -0.207
CAGAAGGA | -0.23
AACCTAAG | -0.0449
CCGTATGC | -0.0137
AGAGCGGA | 0.0394
AATCACCT | -0.0436
AAGGGTCT | -0.124
CTTGGATA | 0.0545
ACCAGTAG | -0.168
ATTGGCGA | 0.124

Sequence | PBM E-score
GTTTAGGA | 0.0576
CAAATCCA | 0.0381
CGCCACCG | -0.0885
CTGTACGA | -0.1
AGTGTGAG | -0.0442
CGAACCCA | -0.106
AAACTCTC | 0.0805
CATGGTTA | -0.00291
AAGGACTT | -0.301
AGCCTCAT | 0.0188
ATCTCATC | 0.0817
CCTGATCA | -0.0885
CGTCATCC | 0.0358
AAAGGATC | -0.12
CATTACGA | -0.0341
AACGATAA | 0.137
ATAACCCG | -0.263
CCTGGGAA | -0.078
CCGATTCG | 0.156
ACGGTCAA | 0.166
